Measurements reported in PubChem BioAssay AID1030 (National Center for Advancing Translational Sciences (NCATS), 2008).
The campaign covered roughly 220,000 compounds. About 16,000 (7.3%) were called active. Inconclusive means that the source gave no clear call. Such entries were picked first, then a sample of the others. Calls come from the whole dose curve; as a rule, active = well fitted inhibition curve with a large enough effect (not every such curve was filed as active); inconclusive = small, poorly fitted or top-dose-only effect, or another doubt; inactive = no such curve, though single readings can be large or run the other way. Where the call is inconclusive, the potency comes from a doubtful curve fit. Some compounds were tested as several samples or in several runs, with calls that do not always agree.

molecular target: Aldehyde dehydrogenase 1A1 (Homo sapiens) (UniProt P00352); assay: qHTS Assay for Inhibitors of Aldehyde Dehydrogenase 1 (ALDH1A1); settings: Purified ALDH1A1, NADH fluorescence, propionaldehyde substrate; series mostly up to 75.3 µM; activity, negative = inhibition: at the top concentration;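 for activity, negative = inhibition: plate controls were no enzyme wells and a reference inhibitor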
Potency is the fitted concentration of half-maximal effect; tags give direction and shape of the fitted curve.

Sequence of UniProt P00352 (P00352 whole entry, looked up): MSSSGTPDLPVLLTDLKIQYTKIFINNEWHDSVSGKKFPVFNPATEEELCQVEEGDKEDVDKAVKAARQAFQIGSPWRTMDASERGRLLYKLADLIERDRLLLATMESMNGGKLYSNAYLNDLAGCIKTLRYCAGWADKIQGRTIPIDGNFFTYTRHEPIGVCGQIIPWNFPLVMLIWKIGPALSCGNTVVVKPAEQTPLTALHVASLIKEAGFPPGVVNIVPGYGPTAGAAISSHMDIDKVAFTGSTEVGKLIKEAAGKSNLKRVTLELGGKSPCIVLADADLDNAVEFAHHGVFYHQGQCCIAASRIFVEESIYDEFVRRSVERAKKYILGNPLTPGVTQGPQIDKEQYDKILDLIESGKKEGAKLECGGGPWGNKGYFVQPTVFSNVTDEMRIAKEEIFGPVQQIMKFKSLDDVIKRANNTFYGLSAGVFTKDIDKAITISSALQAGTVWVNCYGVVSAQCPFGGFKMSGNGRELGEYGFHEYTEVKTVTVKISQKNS

Potency, inconclusive:
O=C1SC(SCc2ccccc2Cl)=N/C1=C\c1ccc(C(=O)O)cc1 44.7 µM [inhibitor, single point]
COCCNC(=O)Nc1ccc2nc(C)sc2c1 15.8 µM [inhibitor, single point]
CCOC(=O)CNC(=O)CSc1nc2sc(C)c(C)c2c(=O)n1C 39.8 µM [inhibitor, single point]
COc1ccccc1/C=C/C(=O)NCC(=O)N/N=C(\CCC(=O)O)c1ccccc1 6.31 µM [inhibitor, single point]
CCOC(=O)c1c(C)nc(SCC(N)=O)c(C#N)c1-c1ccccc1 39.8 µM [inhibitor, single point]
O=C(c1ccccc1)N1CCC(c2nc(-c3ccc(S(=O)(=O)NCC4CCCO4)cc3)no2)CC1 (stereo not drawn) 39.8 µM [inhibitor, single point]
O=C(Nc1ncnc2sc3c(c12)CCC3)c1ccco1 23.8 µM [inhibitor, partial curve]
CCOC(=O)c1sc(S(C)(=O)=O)c2c1CC(C)(C)C/C2=N/O 25.1 µM [inhibitor, partial curve]
COc1ccc(N=C2NC(=O)/C(=C\c3ccco3)S2)cc1 20 µM [inhibitor, partial curve]
O=C(/C(C=Nc1cc2c(oc1=O)CCCC2=O)=C(\O)c1ccccc1)c1ccccc1 28.2 µM [inhibitor, single point]
COc1ccccc1OCCC(=O)OCC(=O)c1c(N)n(C)c(=O)n(C)c1=O 39.8 µM [inhibitor, single point]
Cc1ccc(C)c(-n2c(SCC(=O)Nc3nonc3C)nnc2-c2ccoc2C)c1 25.1 µM [inhibitor, single point]
O=C(NCC(=O)N(Cc1ccccc1)C(C(=O)NC1CCCC1)c1cccnc1)c1ccco1 (stereo not drawn) 39.8 µM [inhibitor, single point]
CCn1cc(C(=O)Nc2ccc(C)c([N+](=O)[O-])c2)cn1 25.1 µM [inhibitor, partial curve]
Cc1cnccc1CN(C)Cc1nc(Cc2ccccc2Cl)no1 25.1 µM [inhibitor, single point]
O=C(Nc1ccccn1)C1(c2ccccc2)CCCC1 28.2 µM [inhibitor, partial curve]
O=C(CCCN1C(=O)/C(=C/c2ccccc2)SC1=S)Nc1ccc(O)cc1 25.1 µM [inhibitor, single point]
CC(=O)c1cc(C#N)c(N2CCCC2)nc1C 39.8 µM [inhibitor, single point]
COc1cc(N/C=C(\C(C)=O)c2ccccc2)cc(OC)c1 31.6 µM [inhibitor, single point]
COCCn1c(=O)c(C)nc2cnc(OC)nc21 39.8 µM [inhibitor, single point]
Nc1c(O)ccc2c1C(=O)c1ccccc1C2=O 44.7 µM [inhibitor, single point]
CC1(C)CC(=O)c2cnn(-c3nc4ccccc4[nH]3)c2C1 28.2 µM [inhibitor, partial curve]
Nc1sc2c(c1C(=O)NC1CCS(=O)(=O)C1)CCC2 (stereo not drawn) 39.8 µM [inhibitor, single point]
Cc1cc(=O)oc2cc(OCC(=O)NCCc3nc4ccccc4[nH]3)ccc12 7.94 µM [inhibitor, partial curve]
COc1cccc2[nH]c3c(N4CCN(Cc5ccc6c(c5)OCO6)CC4)ncnc3c12 35.5 µM [inhibitor, partial curve]
COc1ccccc1/C=C/C=N/n1c(-c2ccc(F)cc2)n[nH]c1=S 39.8 µM [inhibitor, single point]
OCc1ccc(-c2ccc(-c3ccc(CO)s3)o2)s1 31.6 µM [inhibitor, partial curve]
Cc1ccc(/C=N/NC(=O)c2cccc([N+](=O)[O-])c2)o1 39.8 µM [inhibitor, single point]
COCCN(Cc1cc2c(C)cc(C)cc2nc1Cl)C(=O)c1ccccc1F 39.8 µM [inhibitor, single point]
CCn1c(SC(C)C)nnc1C1CCN(S(=O)(=O)c2ccc(OC)cc2)CC1 28.2 µM [inhibitor, single point]
C=C1CCC2C(C)(C)[C@H](O)CC[C@@]2(C)[C@@H]1COc1cc(=O)oc2ccccc12 (stereo partly drawn) 31.6 µM [inhibitor, single point]
CN(C1CCCCC1)S(=O)(=O)c1ccc(-n2cnnn2)cc1 14.1 µM [inhibitor, partial curve]
CCN(CC)CCN(Cc1cc2ccc(C)c(C)c2[nH]c1=O)C(=S)NCc1ccco1 39.8 µM [inhibitor, single point]
COc1ccc(S(=O)(=O)N2CC3CCCN3c3ccc(C(F)(F)F)cc32)cc1 (stereo not drawn) 15.8 µM [inhibitor, partial curve]
COc1ccc(CN2CCN(C(=O)c3cccnc3)CC2)cc1Br 39.8 µM [inhibitor, single point]
CCOC(=O)C1CCCN(CC(=O)Nc2c(C(=O)OC)[nH]c3ccc(C)cc23)C1 (stereo not drawn) 35.5 µM [inhibitor, single point]
O=C(Nc1ccc(S(=O)(=O)C(F)F)cc1)c1cccc(S(=O)(=O)N2CCOCC2)c1 39.8 µM [inhibitor, single point]
Cc1ccc(S(=O)(=O)N(CC(=O)N2CCC(C)CC2)Cc2ccccc2F)cc1 14.1 µM [inhibitor, partial curve]
Cc1ccc(Cn2c(O)c(N=NC(=S)Nc3ccccc3F)c3cc(S(=O)(=O)N4CCOCC4)ccc32)cc1 39.8 µM [inhibitor, single point]

Potency, active:
CC1(CC(=O)Nc2ccccc2)NC(=S)N(c2ccccc2)N1 (stereo not drawn) 11.2 µM
COc1ccccc1CN(Cc1cc2c(C)ccc(C)c2[nH]c1=O)Cc1nnnn1Cc1ccco1 14.1 µM
CN(C)/C=C/c1onc(-c2c(F)cccc2Cl)c1C#N 3.55 µM
Cc1cccc(NC(=O)C(c2ccccc2Cl)N2CCOCC2)c1 (stereo not drawn) 25.1 µM
Nc1cc2nsnc2cc1Br 7.94 µM
Cc1ccc(NC(=O)c2ccc(-c3nn(C)c(=O)c4ccccc34)cc2)c(C)c1 8.91 µM
N#C/C(=C\c1cccc([N+](=O)[O-])c1)C(=O)Nc1cccnc1 11.2 µM
Cc1cc[n+](-c2nc([O-])sc2/C=N/Nc2ccc([N+](=O)[O-])cc2)cc1 14.1 µM
Cc1cc(C(=O)COC(=O)c2ccc(O)cc2)c(C)n1Cc1ccco1 7.94 µM
CC[C@H](C)[C@@H](NC(=O)O[C@@H]1C(=O)c2cc(Br)ccc2O[C@H]1c1ccc2c(c1)OCO2)C(=O)OC 25.1 µM
CC(C)c1ccc(O)c(N)c1 28.2 µM
COc1ccc(NC(=O)/C=C/c2ccco2)cn1 7.08 µM
O=C(CSc1nnc(C2CC2)n1Cc1ccccc1)c1ccc(S(=O)(=O)N2CCOCC2)cc1 11.2 µM
CCCc1[nH]n(-c2nc3ccccc3s2)c(=O)c1C=NCC1CCCO1 (stereo not drawn) 25.1 µM
COc1ccc(S(=O)(=O)Nc2ccc(O)c(Sc3nc4ccccc4s3)c2)cc1 17.8 µM
COc1ccc(NC(=O)CN2CCN(CC(=O)Nc3ccccc3Cl)CC2)cc1 8.91 µM

activity, negative = inhibition, inactive:
C/C(=N\NC(=O)C(=O)N/N=C(\C)c1cccc(O)c1)c1cccc(O)c1 3.29%
O=C(CN1CCN(Cc2ccc(Cl)cc2)CC1)N/N=C/c1c[nH]c2ccccc12 3.73%
O=C(c1ccc(Cn2c(=S)[nH]c3ccc(Br)cc3c2=O)cc1)N1CCN(C2CCCCC2)CC1 -0.655%
CC1=NN(C(=O)c2ccccc2)C(O)(c2ccc(Br)cc2)C1 (stereo not drawn) -2.09%
C[C@H](NC(=O)OC(C)(C)C)C(=O)N/N=C/c1cccc2nccnc12 -0.437%
CCC(=O)Nc1ccccc1Sc1ncnc2scc(-c3ccccc3)c12 -2.3%
CCN1CCN(c2ccc(N=Cc3ccc(O)cc3O)cc2)CC1 -5.74%
Cc1ccc(NC(=O)Cn2c(C)cc(C)c(C#N)c2=O)c(Cl)c1 -5.72%
CCOc1cc(CNCc2ccccn2)ccc1OCC(=O)NC1CCCCC1 -11.6%
O=C1c2ccccc2C(=O)N1C[C@]1(C(=O)O)NCCS1(=O)=O -2.52% [at 13.5 µM]
Cc1cn(C2CC(N=[N+]=[N-])C(CO)O2)c(=O)[nH]c1=O (stereo not drawn) 0.524%
CN(C)S(=O)(=O)c1ccc(NC(=O)CN2CCC(Cc3ccccc3)CC2)cc1 -3.76%
CC(=O)Nc1ccc(-c2ccc3nnc(C)n3n2)cc1 1.91%
O=C(Nc1nc(-c2cccs2)c(C(=O)C(F)(F)F)s1)c1ccccc1 -0.381%
O=c1cc(-c2cccc(O)c2O)oc2ccccc12 -2.79%
O=C(Nc1nc(N2C(=O)c3ccccc3C2=O)n(-c2ccccc2)n1)c1ccccc1 2.76%
Cc1ccc(NC(=O)Cn2cc3c(n2)CCC(C)C3)cc1 (stereo not drawn) 8.63%
Cc1ccc([N+](=O)[O-])cc1NC(=O)Nc1onc(C)c1C 3.23%
